In PubChem BioAssay AID686978 (National Center for Advancing Translational Sciences (NCATS), 2013):
Where “and” joins values, the source holds several entries; their conditions need not be identical. Identical values can stand only once. The campaign covered roughly 420,000 compounds. About 64,000 (15%) were called active. This list was built around the results that the source calls inconclusive (neither active nor inactive); the mix of calls is not that of the screen. Calls follow the shape of the dose curve; as a rule, active = well fitted inhibition curve with a large enough effect; inconclusive = small, poorly fitted or top-dose-only effect; inactive = flat fitted curve, though single readings scatter. Potencies of inconclusive entries are left out as doubtful fits.

test: qHTS for Inhibitors of human tyrosyl-DNA phosphodiesterase 1 (TDP1): qHTS in cells in absence of CPT; settings: DT40 Tdp1-/- hTDP1 cells, no CPT, ATP luminescence, 48 h; activity change, negative = growth inhibition: at 46.2 µM (top of the series) unless noted; also: nearly all actives have a fitted effect of over 55% in size
How it was run: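 A cellular qHTS used chicken DT40 cells lacking endogenous Tdp1 but carrying stably transfected human TDP1. Compounds were applied without camptothecin, and cell growth kinetics were judged by ATP-dependent luminescence after ≥48 hr.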
% is scaled to controls: 0 for no effect and ±100 for the full control effect; potency is read from the fitted curve at half-maximal effect; tags tell the direction and shape of the fitted curve.

Row | Compound | Potency | activity change, negative = growth inhibition
1 | COc1ccc(-n2nnnc2C(c2cccc(OC)c2OC)N2CCC(n3c(=O)[nH]c4ccccc43)CC2)cc1 (stereo unspecified) | active: 5.17 µM | –
2 | CC(C)Cc1nnc(NC(=O)CCC(=O)N2CCN(CCOC(c3ccccc3)c3ccccc3)CC2)s1 | inconclusive [inhibitor, single point] | –
3 | CCOC(C(=O)OCCCN(CC)CC)(c1ccccc1)c1ccccc1 | inconclusive [inhibitor, partial curve] | –
4 | O=C1NCN(c2ccccc2)C12CCN(C(c1ccccc1)c1nnnn1-c1ccc3c(c1)OCCO3)CC2 (stereo unspecified) | inconclusive [inhibitor, single point] | –
5 | COc1cccc(-c2ccc(O)c(CNC3CN4CCC3CC4)c2)n1 (stereo unspecified) | inconclusive [inhibitor, single point] | –
6 | COC(=O)C1C2CC[C@@H](CC1OC(=O)c1ccccc1)N2 (stereo partly specified) | – | inactive: -1.38%
7 | NC(N)=Nc1ccc2[nH]c3c(c2c1)C[C@@]1(O)[C@H]2Cc4ccc(O)c5c4[C@@]1(CCN2CC1CC1)[C@H]3O5 | active: 4.61 µM | –
8 | c1ccc(CN2CC[C@@]3(CCCNC3)C2)cc1 | inconclusive [inhibitor, single point] | –
9 | CCn1cc(C=C2C(=O)NC(=O)NC2=O)c2ccccc21 | – | inactive: -27.7%
10 | NNC(=O)CN1C(=O)CN=C(c2ccccc2)c2cc(Br)ccc21 | – | inactive: -8.71%
11 | CN1CCN2c3ccc(N)cc3CC3(C(=O)NC(=O)NC3=O)C2C1 (stereo unspecified) | – | inactive: 0.478%
12 | O=c1c2ccccc2nc(/C=C\c2cccc(Br)c2)n1-c1ccc(O)cc1 | inconclusive [inhibitor, single point] | –
13 | O=c1c2ccccc2nc(-c2ccccc2)n1-c1cccc(O)c1 | inconclusive [inhibitor, single point] | –
14 | C[C@H]1CN([C@@H](C)CO)C(=O)CCCn2nncc2CO[C@H]1CN(C)C(=O)Oc1ccc2ccccc2c1 | active: 9.2 µM | –
15 | CCSc1nnc(NC(=O)c2cccn(Cc3ccc(Cl)cc3)c2=O)s1 | – | inactive: 0.546%
16 | CCOC(=O)C1(CCc2ccccc2)CCN(C2CCSCC2)CC1 | active: 6.51 µM | –
17 | COc1ccc(-n2c(-c3ccccc3)nc3ccccc3c2=O)cc1 | active: 13 µM | –
18 | O=[N+]([O-])c1ccc(C(=Nc2ccccc2)N2CC2)cc1 | active: 14.6 µM | –
19 | CCc1ccc(NC(=O)c2ccc3oc(=O)n(Cc4ccccc4)c3c2)cc1 | active: 18.4 µM | –
20 | COC(=O)C1=C(c2ccc(-c3ccccc3)c(F)c2)C[C@@H]2CC[C@H]1N2C(=O)NCCOc1ccc(OC)cc1 | active: 14.6 µM | –
21 | Cc1ccccc1-n1c(O)c(C(c2ccncc2)c2c(O)n(-c3ccccc3C)c(=O)[nH]c2=O)c(=O)[nH]c1=O | inconclusive [inhibitor, single point] | –

Row | Compound | Potency | activity change, negative = growth inhibition
22 | C[C@H]1O[C@@H](O[C@H]2[C@@H](O)C[C@H](O[C@H]3[C@@H](O)C[C@H](O[C@H]4CC[C@]5(C)C6CC[C@]7(C)[C@@H](C8=CC(=O)OC8)CC[C@]7(O)C6CC[C@@H]5C4)O[C@@H]3C)O[C@@H]2C)C[C@H](O)[C@@H]1O (stereo partly specified) | active: 0.376 µM | –
23 | COc1cc(C2c3cc4c(c(O)c3CC3COC(=O)C32)OCO4)cc(OC)c1OC (stereo unspecified) | active: 580 nM and active: 31.6 nM and active: 116 nM | –
24 | COc1ccc2oc3c(c2c1)NC(=O)CN=C3c1ccccc1 | inconclusive [inhibitor, single point] | –
25 | CC[C@@H](CO)NC(=O)[C@@H]1C=C2c3cccc4[nH]cc(c34)C[C@H]2N(C)C1 | inconclusive [inhibitor, single point] | –
26 | Cc1ccc(S(=O)(=O)N2Cc3cc(-c4ccccc4)ccc3-n3nncc3C2)cc1 | inconclusive [inhibitor, single point] | –
27 | COC(=O)C1=C(c2ccc(Cl)c(C(F)(F)F)c2)C[C@@H]2CC[C@H]1N2C(=O)NCCOc1ccccc1Cl | inconclusive [inhibitor, single point] | –
28 | CCN(C(=O)COC(=O)c1cc(C)n(C2CC2)c1C)c1ccccc1 | inconclusive [inhibitor, single point] | –
29 | CCOc1ccc(CN2C(=O)c3ccccc3Sc3ccc(C(=O)N4CCC5(CC4)OCCO5)cc32)cc1 | inconclusive [inhibitor, single point] | –
30 | COC(=O)C1=C(c2ccc(F)cc2OCc2ccccc2)C[C@@H]2CC[C@H]1N2C(=O)NCCN1CCOCC1 | inconclusive [inhibitor, single point] | –
31 | CCN(CC)C(=O)c1ccc(NC(=O)c2cc(S(=O)(=O)N3CCCCCC3)ccc2OC)cc1 | inconclusive [inhibitor, single point] | –
32 | COc1cc2c(cc1OC)C1C(=O)c3c(cc4c(c3O)C=CC(C)(C)O4)OC1CO2 (stereo unspecified) | active: 0.731 µM | –
33 | CN(C(=O)Oc1ccc(Cl)c2cccnc12)c1ccccc1 | – | inactive: -15.5%
34 | O=C(O)/C=C/C(=O)O | – | inactive: 1.4%
35 | CCCCOCCCn1c(N)c(C(=O)OC(C)COC)c2nc3ccccc3nc21 (stereo unspecified) | inconclusive [inhibitor, single point] | –
36 | CCCCOC(=O)c1ccccc1C(=O)OCCCC | inactive | –
37 | CCNC(=O)O/N=C(\C)c1sc(-c2ccccc2)nc1C | inconclusive [inhibitor, single point] | –
38 | CC1=NN(c2ccccc2)C(=O)C1/C=C1\C(=O)NC(=O)N(c2ccc(C)c(C)c2)C1=O (stereo unspecified) | inconclusive [inhibitor, single point] | –
39 | NC(=O)c1ccc(NC(=O)c2cccn(Cc3ccccc3)c2=O)cc1 | inconclusive [inhibitor, full curve] | –
40 | CC(=O)O[C@@]12CO[C@@H]1C[C@H](O)[C@@]1(C)C(=O)[C@H](O)C3=C(C)[C@@H](OC(=O)[C@H](O)[C@@H](NC(=O)c4ccccc4)c4ccccc4)C[C@@](O)([C@@H](OC(=O)c4ccccc4)C12)C3(C)C (stereo partly specified) | active: 0.206 µM | –
41 | N[C@@H](Cc1c[nH]c2ccccc12)c1nnc(SCc2ccccc2F)o1 | – | inconclusive: -37% [inhibitor]
